# Source: the supplement of paper PMC10126150
# Values marked as one replicate rest on one cluster of the flow cell; about a third of the high ones do not repeat.
# Tested on: ATP
# Test: switch fluorescence ratio, 500 uM ATP over buffer (Cy3 cluster intensity, sum of 5 cycles each) (fold (ratio)); higher = stronger signal-on switching upon ATP binding; sequences stand for … in TCGTCGGCAGCGTCAGATGTGTATAAGAGACAGTTTTTTTTTTTTTTTTTTTTTTTTT…TC
# Settings: aptamer strand: ATP DNA aptamer (quencher-CACCTGGGGGAGTATTGCGGAGGAAGG + anchor), 100 nM annealed; ATP concentration: 500 uM; one replicate
# Summary of the method: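 Cy3-labelled switching-strand clusters on a modified Illumina MiSeq flow-cell were annealed to 100 nM quencher-labelled ATP aptamer, imaged in selection buffer, then imaged after 15 min with 500 uM ATP at 22 °C. Five buffer/ATP cycles ran, with NaOH stripping and re-annealing between them. The fluorescence ratio is summed target-cycle over summed buffer-cycle Cy3 intensity per cluster, averaged per switch-domain sequence. Clusters outside 100-1000 RFU were excluded.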
# 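Also: ATP exposure 15 min at 22 °C before imaging.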
row,Sequence,switch fluorescence ratio
1,CGGCCGGATT,0.979
2,CGGCCGGCGG,0.952
3,CGGCCGTTCA,1.02
4,CGGCCTGGCC,1
5,CGGCGACAAA,1.02
6,CGGCGAGGTC,1.05
7,CGGCGCCAAG,1.01
8,CGGCGTTGGG,1
9,CGGCTAACAT,0.971
10,CGGCTCAATC,1.99
11,CGGCTGACGT,1.01
12,CGGCTGCCTG,1.04
13,CGGCTGCGGC,1.06
14,CGGCTGTGGG,0.992
15,CGGGAAACGT,1.07
16,CGGGAAATTT,1.38
17,CGGGAAGACT,1
18,CGGGAAGATG,1
19,CGGGAAGCC,1.03
20,CGGGACCCGG,1.07
21,CGGGACTAGT,0.946
22,CGGGACTATC,1.02
23,CGGGAGACCT,1.14
24,CGGGAGAGCG,0.989
25,CGGGAGGTCA,0.961
26,CGGGATAATT,0.997

row,Sequence,switch fluorescence ratio
1,CGGGATGGAC,1.03
2,CGGGATGGGT,0.998
3,CGGGATTCCA,1.02
4,CGGGCAAGTA,1.02
5,CGGGCAGCGC,1.04
6,CGGGCCACAA,1.13
7,CGGGCGGCTG,0.998
8,CGGGCTAAGC,0.993
9,CGGGCTAGGA,1
10,CGGGCTCCGG,1.04
11,CGGGCTGAGG,0.997
12,CGGGGAACAA,1.18
13,CGGGGAATCG,1.01
14,CGGGGAATTC,0.995
15,CGGGGAGCT,0.972
16,CGGGGATAAT,1.03
17,CGGGGCCCGG,1.12
18,CGGGGCGGTA,1.03
19,CGGGGCTCAG,0.983
20,CGGGGTATCG,0.981
21,CGGGGTTATC,1.35
22,CGGGTAATGA,0.989
23,CGGGTAGCCT,1
24,CGGGTAGTTT,1.01
25,CGGGTATCCT,1.01
26,CGGGTCACTT,1.09

row,Sequence,switch fluorescence ratio
1,CGGGTCGGAA,1.03
2,CGGGTCTAAG,0.992
3,CGGGTGAAGC,1
4,CGGGTGCAGC,0.99
5,CGGGTGTTGT,0.969
6,CGGGTTCAGG,1.01
7,CGGTAAGAAC,0.955
8,CGGTAAGACT,1.11
9,CGGTACAGAC,1.1
10,CGGTACGTA,1.04
11,CGGTAGAACT,0.992
12,CGGTAGAGGA,0.957
13,CGGTAGGGAT,0.997
14,CGGTAGTCTC,1.02
15,CGGTCACCGA,1.01
16,CGGTCAGCAT,1.18
17,CGGTCATACA,1.04
18,CGGTCATATG,0.989
19,CGGTCCCATC,1.07
20,CGGTCCGTGA,1.1
21,CGGTCCTATA,0.992
22,CGGTCCTTGC,1.22
23,CGGTCGCTGT,1.08
24,CGGTCGGGCA,1.03
25,CGGTCTAAAG,1.03
26,CGGTCTGTA,1.06

row,Sequence,switch fluorescence ratio
1,CGGTCTTAGA,0.969
2,CGGTCTTGTT,0.998
3,CGGTGACCGG,1
4,CGGTGATAG,1.01
5,CGGTGATGAG,1.04
6,CGGTGGATAA,1.02
7,CGGTGGCTAG,0.987
8,CGGTGGCTCG,1.04
9,CGGTGGTGCC,0.977
10,CGGTGTCGTC,0.963
11,CGGTGTTATT,1.02
12,CGGTTAATAG,1.08
13,CGGTTAGGTA,0.984
14,CGGTTATAAA,0.97
15,CGGTTATTCC,1.08
16,CGGTTCAACG,1.04
17,CGGTTCACAG,1.01
18,CGGTTCACAT,1.02
19,CGGTTCTTGC,1.02
20,CGGTTGAACG,0.986
21,CGGTTGCCT,0.972
22,CGGTTGCCTA,0.918
23,CGGTTGGGA,1.03
24,CGGTTGGGAC,1.01
25,CGGTTGGTGT,0.979
26,CGGTTTACTC,1.07

row,Sequence,switch fluorescence ratio
1,CGGTTTCGCG,1.02
2,CGGTTTCGTA,0.965
3,CGGTTTCTA,1.04
4,CGGTTTTAT,0.988
5,CGTAACCAGG,1.9
6,CGTAACCCAC,1.48
7,CGTAATAGGG,1.04
8,CGTAATGTGG,1
9,CGTAATTAAT,0.945
10,CGTAATTATA,0.994
11,CGTAC,1.07
12,CGTACCGCC,1.15
13,CGTACGGACA,1.18
14,CGTACTGAGT,1.03
15,CGTACTTCCC,1.58
16,CGTACTTCTT,0.997
17,CGTAGACGTC,0.983
18,CGTAGACTAG,1.01
19,CGTAGACTCC,2.07
20,CGTAGAGATC,0.964
21,CGTAGATTGG,0.975
22,CGTAGCTGTA,1.11
23,CGTAGGACTA,0.999
24,CGTAGGAGAA,0.98
25,CGTAGTCGAT,1.01
26,CGTAGTGGCC,0.999

row,Sequence,switch fluorescence ratio
1,CGTAGTGTTG,0.999
2,CGTATAAAGC,0.966
3,CGTATAGCAT,0.982
4,CGTATGAAGT,0.998
5,CGTATGATAC,1.3
6,CGTATGCGAC,1.05
7,CGTATTACGG,1.02
8,CGTATTCTG,1.01
9,CGTCAAACCT,2.83
10,CGTCAAAGA,1.03
11,CGTCACCGAA,1.04
12,CGTCAGAGGT,1.02
13,CGTCAGGAGT,0.991
14,CGTCAGTGGG,0.986
15,CGTCATGTTC,0.997
16,CGTCATGTTT,0.969
17,CGTCATTATT,1.03
18,CGTCATTCTT,1.03
19,CGTCCATCGT,1.01
20,CGTCCCAGGG,2.63
21,CGTCCCCTT,3.29
22,CGTCCGAGAG,1.5
23,CGTCCGGACT,1.04
